The chains are these.
B1: PhoQ; a variant is named by its letters at X, in order, P23837 (parent)
chain: MKKLLRLFFPLSLRVRFLLATAAVVLVLSLAYGMVALIGYSVSFDKTTFRLLRGESNLFYTLAKWENNKLHVELPENIDKQSPTMTLIYDENGQLLWAQRDVPWLMKMIQPDWLKSNGFHEIEADVNDTSLLLSGDHSIQQQLQEVREDDDDAEMTHSVAVNVYPATSRMPKLTIVVVDTIPVELKSSYMVWSWFIYVLSANLLLVIPLLWVAAWWSLRPIEALAKEVRELEEHNRELLNPATTRELTSLVRNLNRLLKSERERYDKYRTTLTDLTHSLKTPLXXLQXXLRSLRSEKMSVSDAEPVMLEQISRISQQIGYYLHRASMRGGTLLSRELHPVAPLLDNLTSALNKVYQRKGVNISLDISPEISFVGEQNDFVEVMGNVLDNACKYCLEFVEISARQTDEHLYIVVEDDGPGIPLSKREVIFDRGQRVDTLRPGQGVGLAVAREITEQYEGKIVAGESMLGGARMEVIFGRQHSAPKDE

The other results are listed elsewhere or left out.

Variants of B1 are the subject of the assay. Nature of the assay: enrichment ratio after two sorts for PhoP signalling (ratio (wild type AVST 3.29)); higher = more functional. The conditions noted are these: with PhoP (E. coli).
Take GQST: the enrichment ratio is ≤ 0.25.

In the case of WFRL, the enrichment ratio was ≤ 0.25.

As for DMLP, the enrichment ratio was ≤ 0.25.

Regarding LPLQ, the enrichment ratio was ≤ 0.25.

In the case of RAGI, the enrichment ratio was ≤ 0.25.

TNGV: the enrichment ratio turned out to be 6.83.

Take HWQG: the enrichment ratio was ≤ 0.25.

For GSSH, the enrichment ratio is ≤ 0.25.

Consider VWKN, for which the enrichment ratio is ≤ 0.25.

For the variant QNRL, the enrichment ratio was ≤ 0.25.

Consider YRSD, for which the enrichment ratio was ≤ 0.25.

As to DFPK, the enrichment ratio was ≤ 0.25.

On to DQSA, for which the enrichment ratio was ≤ 0.25.

For the variant KNCW, the enrichment ratio was ≤ 0.25.

As for QHNC, the enrichment ratio was 3.29.

For TAVN, the enrichment ratio came to 1.13.

Turning to WETM, the enrichment ratio was ≤ 0.25.

As for SWEM, the enrichment ratio is ≤ 0.25.

Regarding FDDV, the enrichment ratio is ≤ 0.25.

For the variant HFSV, the enrichment ratio was ≤ 0.25.

Take YDLE: the enrichment ratio is ≤ 0.25.

Regarding ISQP, the enrichment ratio was ≤ 0.25.

IKHS: the enrichment ratio is ≤ 0.25.

On to NKFG, for which the enrichment ratio is ≤ 0.25.

On to TNLN, for which the enrichment ratio was 7.21.

For FIEH, the enrichment ratio is ≤ 0.25.

For the variant VCMF, the enrichment ratio is 3.34.

Turning to TQVC, the enrichment ratio stood at 14.3.

In the case of SVQG, the enrichment ratio was ≤ 0.25.

As to ISEA, the enrichment ratio was ≤ 0.25.

Take DSKV: the enrichment ratio is ≤ 0.25.

Turning to LEGI, the enrichment ratio was ≤ 0.25.

Turning to TDNQ, the enrichment ratio was determined as 2.4.

HRIL: the enrichment ratio was ≤ 0.25.

Consider IDPT, for which the enrichment ratio was ≤ 0.25.

On to TSQQ, for which the enrichment ratio was determined as 4.72.

For the variant LWND, the enrichment ratio is ≤ 0.25.

In the case of YTMM, the enrichment ratio was determined as 11.8.

As for WPST, the enrichment ratio is ≤ 0.25.

Turning to PQWP, the enrichment ratio is ≤ 0.25.

TRDG: the enrichment ratio is ≤ 0.25.

Take IYHT: the enrichment ratio is ≤ 0.25.

On to KLPI, for which the enrichment ratio was ≤ 0.25.

For the variant KILY, the enrichment ratio is ≤ 0.25.

Take FFFS: the enrichment ratio was ≤ 0.25.

On to INLD, for which the enrichment ratio was ≤ 0.25.

Take VVYQ: the enrichment ratio was ≤ 0.25.

As for NADN, the enrichment ratio is ≤ 0.25.

As to VYQM, the enrichment ratio is ≤ 0.25.

With DCCT, the enrichment ratio is ≤ 0.25.

On to WDVS, for which the enrichment ratio was ≤ 0.25.

Regarding YHWL, the enrichment ratio is ≤ 0.25.

YSGQ: the enrichment ratio is ≤ 0.25.

Regarding LVNY, the enrichment ratio was ≤ 0.25.

Take FVPN: the enrichment ratio is ≤ 0.25.

Take RCRW: the enrichment ratio was ≤ 0.25.

In the case of NAIR, the enrichment ratio was ≤ 0.25.

For LMPY, the enrichment ratio is ≤ 0.25.

With FAEY, the enrichment ratio was ≤ 0.25.

For the variant FLEI, the enrichment ratio is ≤ 0.25.

Regarding ANAE, the enrichment ratio was ≤ 0.25.

Regarding DRGI, the enrichment ratio was ≤ 0.25.

KNMF: the enrichment ratio was ≤ 0.25.

On to RRTK, for which the enrichment ratio was ≤ 0.25.

On to GPHH, for which the enrichment ratio was ≤ 0.25.

NKSK: the enrichment ratio is ≤ 0.25.

In the case of NWND, the enrichment ratio is ≤ 0.25.

As for IVTD, the enrichment ratio was ≤ 0.25.

Turning to AMSF, the enrichment ratio is 6.43.

As for DCDV, the enrichment ratio is ≤ 0.25.

On to QMYN, for which the enrichment ratio is ≤ 0.25.

In the case of YGKP, the enrichment ratio was ≤ 0.25.

Take IVRD: the enrichment ratio is ≤ 0.25.

With NFLK, the enrichment ratio is ≤ 0.25.

In the case of DLCD, the enrichment ratio is ≤ 0.25.

For WRVH, the enrichment ratio is ≤ 0.25.

Regarding LNNQ, the enrichment ratio is ≤ 0.25.

For KCWV, the enrichment ratio was ≤ 0.25.

Turning to TARK, the enrichment ratio is ≤ 0.25.

As for YPSW, the enrichment ratio is ≤ 0.25.

Take EEPG: the enrichment ratio is ≤ 0.25.

For TWII, the enrichment ratio is ≤ 0.25.

For VVKW, the enrichment ratio is ≤ 0.25.

In the case of PHYL, the enrichment ratio is ≤ 0.25.

Consider GDVH, for which the enrichment ratio was 2.07.

As for IPQM, the enrichment ratio is ≤ 0.25.

With AIQR, the enrichment ratio was ≤ 0.25.

In the case of FHNA, the enrichment ratio was ≤ 0.25.

Consider WNVN, for which the enrichment ratio was ≤ 0.25.

As for IPYF, the enrichment ratio was ≤ 0.25.

Consider ELGH, for which the enrichment ratio is ≤ 0.25.

With VSRY, the enrichment ratio was ≤ 0.25.

For RAGN, the enrichment ratio was ≤ 0.25.

As to NQRS, the enrichment ratio was ≤ 0.25.

Consider MNVD, for which the enrichment ratio is ≤ 0.25.

Take PWAL: the enrichment ratio is ≤ 0.25.

As for KFYR, the enrichment ratio is ≤ 0.25.

On to TFIL, for which the enrichment ratio was ≤ 0.25.

Regarding TEPV, the enrichment ratio was ≤ 0.25.

Consider PFLD, for which the enrichment ratio is ≤ 0.25.

WEPY: the enrichment ratio was ≤ 0.25.

Turning to LDGE, the enrichment ratio is ≤ 0.25.

For HLWW, the enrichment ratio is ≤ 0.25.

In the case of FSGW, the enrichment ratio was ≤ 0.25.

For EHPC, the enrichment ratio was ≤ 0.25.

As for FEPA, the enrichment ratio was ≤ 0.25.

For AKVR, the enrichment ratio was ≤ 0.25.

With CYVR, the enrichment ratio was ≤ 0.25.

Turning to IEMY, the enrichment ratio was ≤ 0.25.

With KKPM, the enrichment ratio is ≤ 0.25.

As for LKIV, the enrichment ratio is ≤ 0.25.

LNIT: the enrichment ratio is ≤ 0.25.

Regarding IELF, the enrichment ratio is ≤ 0.25.

Consider HTED, for which the enrichment ratio is ≤ 0.25.

Regarding FTCD, the enrichment ratio was ≤ 0.25.

On to FERR, for which the enrichment ratio is ≤ 0.25.

As for RNYM, the enrichment ratio is ≤ 0.25.

For PHVF, the enrichment ratio was ≤ 0.25.

As for ALCT, the enrichment ratio stood at 10.9.

In the case of LMFI, the enrichment ratio was ≤ 0.25.

For the variant WFNQ, the enrichment ratio is ≤ 0.25.

On to LFFE, for which the enrichment ratio was ≤ 0.25.

As to TAQP, the enrichment ratio was ≤ 0.25.

Consider DWTQ, for which the enrichment ratio is ≤ 0.25.

For the variant SVCR, the enrichment ratio amounted to 7.88.

As for EYDR, the enrichment ratio was ≤ 0.25.

Turning to FFSN, the enrichment ratio was ≤ 0.25.

For the variant TESP, the enrichment ratio was ≤ 0.25.

For EIFY, the enrichment ratio was ≤ 0.25.

LAQY: the enrichment ratio was ≤ 0.25.

Turning to RFWL, the enrichment ratio was ≤ 0.25.

Turning to LKSH, the enrichment ratio was ≤ 0.25.

With KCRE, the enrichment ratio was ≤ 0.25.

Regarding PKYA, the enrichment ratio is ≤ 0.25.

As for HPNP, the enrichment ratio is ≤ 0.25.

With TLPF, the enrichment ratio was ≤ 0.25.

As to NCVL, the enrichment ratio is ≤ 0.25.

As for DSVT, the enrichment ratio turned out to be 1.06.

For ESTR, the enrichment ratio was ≤ 0.25.

On to PPWA, for which the enrichment ratio was ≤ 0.25.

Turning to NRWV, the enrichment ratio is ≤ 0.25.

As to WTHP, the enrichment ratio is ≤ 0.25.

Consider VAPG, for which the enrichment ratio was ≤ 0.25.

On to ASQW, for which the enrichment ratio is ≤ 0.25.

Regarding LLIP, the enrichment ratio was ≤ 0.25.

Consider ACQP, for which the enrichment ratio is ≤ 0.25.

For the variant TTCM, the enrichment ratio was 24.5.

KAVI: the enrichment ratio was ≤ 0.25.

As for RNRC, the enrichment ratio is ≤ 0.25.

Turning to INMG, the enrichment ratio was ≤ 0.25.

Take NKDI: the enrichment ratio was ≤ 0.25.

In the case of LTIA, the enrichment ratio is ≤ 0.25.

Take TISC: the enrichment ratio was 15.

The record behind these values is a collection of fitness landscapes (doi:10.1126/science.1257360).
